Measurements published in the supplement of paper PMC3334620.
The full ranking holds about 33,000 sequences; the median of “E-score (-0.5 to 0.5)” is about -0.036, and the highest 2% start at about 0.37. The list shows a part of the results.

molecular target: T1, Yer064c (UniProt P40041); assay: PBM E-score (8-mer binding enrichment) (E-score (-0.5 to 0.5)); higher = stronger / more preferred TF binding; most listed sequences are background and not binding sites; conditions: protein concentration: 200 nM; construct: GST-full length
T1 sequence: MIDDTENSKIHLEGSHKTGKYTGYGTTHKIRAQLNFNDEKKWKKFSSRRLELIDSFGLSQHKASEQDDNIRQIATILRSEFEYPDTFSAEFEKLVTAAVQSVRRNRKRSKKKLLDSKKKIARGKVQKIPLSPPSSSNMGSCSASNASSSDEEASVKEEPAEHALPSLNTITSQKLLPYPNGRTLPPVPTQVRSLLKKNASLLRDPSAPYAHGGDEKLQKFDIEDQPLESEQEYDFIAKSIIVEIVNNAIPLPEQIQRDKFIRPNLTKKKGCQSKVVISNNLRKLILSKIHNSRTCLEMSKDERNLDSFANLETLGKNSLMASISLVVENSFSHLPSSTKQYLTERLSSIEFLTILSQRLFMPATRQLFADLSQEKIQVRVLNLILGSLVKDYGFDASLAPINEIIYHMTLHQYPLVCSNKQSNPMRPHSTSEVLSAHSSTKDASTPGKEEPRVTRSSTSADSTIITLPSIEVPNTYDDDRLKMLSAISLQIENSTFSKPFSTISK
Outline: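 Bound GST-tagged yeast transcription factors, applied at about 100-200 nM to double-stranded universal all-10-mer Agilent arrays, were detected with fluorescent anti-GST. Scans were normalised with masliner. A modified Wilcoxon-Mann-Whitney statistic, the E-score, was assigned to each ungapped eight-base word pooled with its reverse complement by the Universal PBM Analysis Suite.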

Sequence	PBM E-score
TGCTCGAA	-0.124
ACCTATCC	-0.194
AATTAATG	0.0129
CATGACTA	0.491
AAATTTTC	-0.0466
CCTGTTCA	-0.183
CACTTAGC	-0.0151
ACTTGTGG	-0.0625
CCCACAAG	-0.153
CAAGGAGC	-0.0412
AAGGATCG	-0.0994
CGCGGAGA	0.0408
CTGCTACA	-0.0937
AAATGACA	-0.0093
ATTCCTGA	0.169
TCGACTAA	0.373
CCGTGTCA	-0.166
CCCTGGGC	-0.0764
CAAACTTC	0.0269
AGGTACTA	0.0119
TCGAGACA	0.186
CCCCCCCC	-0.322
CCGGGGCC	-0.188
AAAACAGC	-0.118
ACGGAGTC	0.431

Sequence	PBM E-score
AGTATCCG	0.0461
ATATCCGA	0.0402
CACCCCCC	-0.21
CCCCGGTA	-0.142
TGTCGCAA	-0.0497
AACCCTAG	-0.0457
CACGGACC	-0.102
GTCCGATA	-0.117
CCGTAGTC	0.394
GAGGACGC	-0.224
GAGCTGGC	-0.0442
GAATGAGC	-0.048
AAACGACC	-0.0678
AAACCTCA	0.0225
ATTGTGGC	-0.101
ACACAGGA	0.138
CGTCCAGC	-0.0372
GCATGAGC	-0.0333
GCTCCAAA	-0.0487
AACGAGCA	-0.13
ATCCTATG	-0.0227
ATTAATAA	0.163
ATCTCCGG	-0.0467
TGAGGGAA	-0.107
ATTTAAGG	0.154

Sequence	PBM E-score
AATCATGG	0.42
AGCAGGCC	-0.289
AATAGTCA	0.478
CTACGCTA	-0.141
AACGTCTC	0.0798
GGAGGATA	-0.225
ATCTCGAA	0.0351
ATTTCTGG	-0.033
CTGTGAGC	0.067
TACACGTA	-0.0462
CCCTACAC	0.0409
CGTCATCA	-0.004
AATGAGGT	-0.156
CAACGCAC	-0.168
ATAATAGC	-0.226
CTAGTCTC	0.278
ACGTGAAC	-0.144
CGTGGAAC	-0.0822
ATTGTGGA	-0.144
CCATTCAG	-0.0069
CAGATGCC	-0.0361
CGCGGGCC	-0.143
GACGGGGA	-0.164
ATGTAGTC	0.382
GGTAACCA	0.107

Sequence	PBM E-score
CGGAGTAC	-0.0665
CACTACAG	-0.029
TGATCCCA	-0.0706
GCTTTGAA	-0.0423
AAAAGCCA	0.0563
CCCGTGAG	0.00023
TAGTACAA	0.0653
CCCGCAGG	-0.172
CACTTCTA	-0.082
CTGATCAC	0.113
AAGAACGA	-0.0139
ACGTCAGG	-0.249
CGCACTTA	-0.0909
TCGGTACA	0.0864
AAAGGCTG	-0.239
CATCGGGG	0.0339
AGGTCCTA	-0.168
GCTTGGTA	-0.0666
CATGGTAC	-0.168
GGATGGGA	-0.112
AAGGCACA	-0.074
ACGTCAAG	-0.0851
GGTCATAA	0.081
CATCGAGG	-0.185
AGTGCCCC	-0.199

Sequence	PBM E-score
GTGCTCAA	-0.0327
CCTCCCCC	-0.224
ACGTGAAA	0.0132
CGCCATTC	-0.0225
ATCATGAT	0.378
TAGGGTAA	0.0676
ACCCACTA	0.0264
GGCGCGAC	0.216
AGAAAGTA	0.12
AAATGCCA	-0.316
CCGTGCAC	-0.198
AAGCGCAG	-0.226
ACGTGTAA	0.133
AGGCGGGG	-0.0194
CATTACCA	0.0233
ATCCTCCC	-0.107
CAAGGACC	-0.148
ACACTGTA	0.0363
CCTTACTA	0.013
TCTCTCCA	-0.0935
TCCCAGAA	0.00854
ATATTCGA	-0.17
ATTATTTA	0.137
AGCGTACC	-0.271
GTATGCGA	0.0503

Sequence	PBM E-score
TCGCCTCA	-0.0436
CCCGAATC	0.171
GATGTTAA	-0.135
AATCAATC	0.301
CTCCGTTA	-0.0127
ACAGATAA	-0.0819
ACAGTTAG	0.00184
AGAGTGTG	0.0751
GACTCGTA	0.419
ACACATAG	0.0887
CTTTACGC	0.0163
CAATCCAG	-0.149
CACTATGG	-0.105
AGCGTCAT	0.0509
CAAAGCGG	-0.0843
CGCAACTA	-0.0474
TCTGACAA	0.138
CCGTTCCA	-0.214
AGCTATTA	0.014
ATAATTCA	0.0758
GAAGGCGC	-0.375
GAGCCTAA	0.0125
CAAGAACC	-0.0183
TGCCGTAA	-0.0995
CGTTAACG	-0.0607

Sequence	PBM E-score
AAAGACCG	-0.163
CCGACCTA	-0.0879
GAAACTGA	0.0888
ATCGAGAT	-0.151
GCACTCCC	-0.147
TCGGTCAA	-0.00415
CGTCGCTA	-0.0862
CGCCTTGA	-0.0165
CTCCCCGA	-0.0625
ACATAAGT	0.168
GATTAAGC	0.253
AAACTTCA	0.00996
CAAATCTG	-0.0853
AATTTAGC	0.0562
ACGGCGAT	-0.0184
AAAGTTCT	-0.182
CACTACAA	0.0688
ACGCGACG	-0.164
CGACCTAA	-0.0186
CGAGTCTC	0.307
GTTTATAA	-0.0408
CAAGATTG	0.0192
CCTGCAGG	-0.0175
CATAGTCA	0.466
ACCCGTGC	0.114

Sequence	PBM E-score
CACCCCTC	-0.198
ATAACTAC	-0.0291
AGAAGAGG	-0.224
ATCGGTTA	0.212
GCCACCGC	-0.3
GAAGAAAA	-0.0492
CTTTATTC	0.00929
CCCTGGCC	-0.277
CATAGGAC	0.172
CAGAACGA	0.12
AGATCGCC	-0.0953
ATCCTAGC	-0.00328
AGAAACCA	0.147
GGGGAAAA	-0.331
CGGCTGCA	-0.189
GTTCTACA	-0.16
ACCTAAAC	0.103
CCCATACA	-0.15
ATGCCTGG	-0.145
ACTTGCAT	0.0403
GCTACGTA	-0.104
ACAGCGGG	-0.0979
ATTGCAGC	-0.164
CTTAACTA	0.109
ATCTTAAG	0.0869

Sequence	PBM E-score
CTAGTGAG	0.0477
CGTCTGAC	0.156
CAGGTGGA	-0.2
TGTAACAA	0.0232
ATTCTCAG	0.1
AACGCCCC	-0.226
ATCAGAAA	-0.0472
ACTTTCAT	0.0766
AATAGGGC	-0.167
CTGCGATC	-0.106
AGCTGAGC	-0.118
AAAGGCAT	-0.14
AATCCTTG	0.102
GGAGGCGA	-0.111
CCTCATTA	0.0877
ATTTGCTG	0.0322
TCGCCAAA	0.0491
AGTTCTCG	0.0443
AATATCAC	-0.112
CAGCGACC	-0.198
AAGTCAAC	0.367
ATACTTCA	0.0199
ACGGCTCT	-0.0544
ATCCCCGA	-0.0358
CAATAAGA	0.213

Sequence	PBM E-score
ATCTTAAA	0.226
CCTTGCTA	-0.0262
GAGCCCCC	-0.305
CAAGCGGA	-0.17
ATACAATG	0.113
GGGGCACC	-0.429
AACATGGC	-0.184
AATGGGAA	-0.0485
AAGAAGAT	0.155
CGGTGAAA	-0.127
AAAGTAAA	0.0649
ATTGCATC	-0.0771
AGAAAGTG	0.0244
ATGAGTAA	0.386
CTTTTCCC	-0.0425
ATCACAAC	0.13
GTACATAC	-0.0201
TCTGCAAA	0.0112
AGCGCCGA	-0.00218
AGAGCCTA	-0.106
AACACGTT	-0.0811
GCAATAGA	-0.186
ATGCTATA	-0.188
AAGAAATA	0.0217
CTCCTTTA	-0.155

Sequence	PBM E-score
GCTCCACA	-0.195
GAAAAAGC	-0.1
CAACTGAC	0.0907
ACGAAAAG	0.0452
ATACTAAT	0.174
GAAGGGTA	-0.148
GCCATGCC	-0.125
GCATTGGA	-0.0532
CATAATAC	-0.0404
TCAAAGAA	0.0747
CAGATATG	-0.0349
ATTCTAGC	0.0282
GTGGGTTA	0.103
AGGCTCAC	-0.00343
CACTTAAA	0.104
AGCATTTC	-0.121
GACCCCCC	-0.351
ATACTTCG	0.06
CTTCGGAA	0.1
TAAAAGCA	-0.0857
TCTTGGAA	0.0958
AGGCCACC	-0.301
AGAATAAT	-0.053
GATCTTGA	0.125
AAGCGCCG	-0.118

Sequence	PBM E-score
CCAACAAC	0.102
GGACGAAA	-0.114
AAAGTTGA	0.0131
CCTCTACA	-0.203
ATGTTTGG	0.0509
ACGGCTGA	0.205
AATCCTCC	0.0546
CCTTCTTC	-0.299
AGCGACAC	-0.0184
AACTGTCG	-0.0262
CTATCTCC	-0.238
AGCCGACA	-0.0612
TGAACGCA	0.144
CGGTGATC	0.0315
AATCTTCG	0.25
ATAAGCAT	-0.251
CAAGATAC	-0.0857
CAGGTGGG	-0.204
ATGGAAGA	0.0433
ATGTATAA	0.0409
AAGCGATG	-0.146
TGGGCCAA	-0.19
GAAAACAA	-0.0843
GGAGATTA	0.188
CATTACGC	-0.0263

Sequence	PBM E-score
ATGTGGGC	0.0453
CGATAGGA	-0.00722
ACGGACGG	-0.147
CACAGCTA	0.048
GCTCCAGA	-0.0739
AATCCCAC	0.0254
CGTCGCCC	-0.186
CCCCAGCC	-0.243
TTAGCCAA	0.0652
TAACAGAA	0.126
CGCACCCC	-0.3
CGTTCGCA	0.0816
CCGGGTAG	-0.105
CGTAACGA	-0.12
ACTGCGGC	-0.0381
GCTGGGAA	-0.133
ATCTCTCA	0.034
TAAGTGTA	0.172
CTCCCAGC	-0.211
CCTTTATC	-0.243
TAAGGATA	-0.084
ATTATTCA	0.199
CATTTTGA	0.168
CGCTTAAA	0.0753
CGACCCCG	-0.286

Sequence	PBM E-score
AGACTACG	0.322
AAATATAG	0.143
GCATACAC	-0.114
GAGGCTCA	0.0765
CAGTGTAC	-0.091
TAACAATA	0.0823
ATGGTTGA	0.249
ACGGCCAC	-0.284
CACAACTA	0.0429
CTCACAAA	0.232
AATTCAGG	-0.204
CGCGTGGC	-0.0741
AATCAATG	0.236
GGTGCTAA	0.00442
AATCTACG	-0.0149
GTGTGAGA	0.136
AATGTTAG	-0.0796
GCTCCTGA	-0.0761
CACAAGCG	-0.127
